Molecular target: purified HLA-A*02:01 class I molecules (human (endogenous in JY))
Assay: radioligand binding

In the case of RKSAPSTGGV [H3.3WT_(26–35) peptide], the IC50 is reported as > 38.7 µM.

Source: paper PMC5748856 (The Journal of Experimental Medicine, 2018)
